# Test results: the supplement of paper PMC8728848
# Some of the results follow.
# Key:
# Assay in all cases: glycan array binding signal (z-score within array); higher = stronger binding
# Conditions in all cases: glycan notation: IUPAC condensed, linker removed
# Fuc(a1-2)Gal = target: Fuc(a1-2)Gal
# Procedure, shortened: (§1)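 Glycan array binding is given as a within-array Z-score, which can be read as non-binding when negative. The arrays, 3228 of them, came from the Consortium for Functional Glycomics database and were retained only where the protein sequence was available. Z-scores were averaged across arrays of the same protein sequence at different concentrations or buffers and across linkers.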
# Fuc(a1-2)Gal(b1-3)GalNAc = target: Fuc(a1-2)Gal(b1-3)GalNAc
# Procedure, shortened: as §1
# [1] = target: Fuc(a1-2)Gal(b1-3)GalNAc(a1-3)[Fuc(a1-2)]Gal(b1-4)Glc
# Procedure, shortened: as §1
# [2] = target: Fuc(a1-2)Gal(b1-3)GalNAc(a1-3)[Fuc(a1-2)]Gal(b1-4)GlcNAc
# Procedure, shortened: as §1
# [3] = target: Fuc(a1-2)Gal(b1-3)GalNAc(b1-3)Gal
# Procedure, shortened: as §1
# [4] = target: Fuc(a1-2)Gal(b1-3)GalNAc(b1-3)Gal(a1-4)Gal(b1-4)Glc
# Procedure, shortened: as §1
# [5] = target: Fuc(a1-2)Gal(b1-3)GalNAc(b1-4)[Neu5Ac(a2-3)]Gal(b1-4)Glc
# Procedure, shortened: as §1
# Fuc(a1-2)Gal(b1-3)GlcNAc = target: Fuc(a1-2)Gal(b1-3)GlcNAc
# Procedure, shortened: as §1
# [6] = target: Fuc(a1-2)Gal(b1-3)GlcNAc(b1-2)Man(a1-3)[Fuc(a1-2)Gal(b1-3)GlcNAc(b1-2)Man(a1-6)]Man(b1-4)GlcNAc(b1-4)GlcNAc
# Procedure, shortened: as §1
# [7] = target: Fuc(a1-2)Gal(b1-3)GlcNAc(b1-2)Man(a1-3)[Fuc(a1-2)Gal(b1-3)GlcNAc(b1-2)Man(a1-6)]Man(b1-4)GlcNAc(b1-4)[Fuc(a1-6)]GlcNAc
# Procedure, shortened: as §1
# [8] = target: Fuc(a1-2)Gal(b1-3)GlcNAc(b1-3)Gal(b1-4)Glc
# Procedure, shortened: as §1
# [9] = target: Fuc(a1-2)Gal(b1-3)GlcNAc(b1-3)GalNAc
# Procedure, shortened: as §1
# [10] = target: Fuc(a1-2)Gal(b1-3)GlcNAc(b1-3)[Fuc(a1-2)Gal(b1-3)GlcNAc(b1-6)]GalNAc
# Procedure, shortened: as §1
# [11] = target: Fuc(a1-2)Gal(b1-3)GlcNAc(b1-3)[Gal(b1-4)GlcNAc(b1-6)]Gal(b1-4)Glc
# Procedure, shortened: as §1
# [12] = target: Fuc(a1-2)Gal(b1-3)GlcNAc(b1-3)[Neu5Ac(a2-6)Gal(b1-4)GlcNAc(b1-6)]Gal(b1-4)Glc
# Procedure, shortened: as §1
# [13] = target: Fuc(a1-2)Gal(b1-3)GlcNAc6S
# Procedure, shortened: as §1
# [14] = target: Fuc(a1-2)Gal(b1-3)[Fuc(a1-4)]GlcNAc
# Procedure, shortened: as §1
# [15] = target: Fuc(a1-2)Gal(b1-3)[Fuc(a1-4)]GlcNAc(b1-2)Man(a1-3)[Fuc(a1-2)Gal(b1-3)[Fuc(a1-4)]GlcNAc(b1-2)Man(a1-3)]Man(b1-4)GlcNAc(b1-4)GlcNAc
# Procedure, shortened: as §1
# [16] = target: Fuc(a1-2)Gal(b1-3)[Fuc(a1-4)]GlcNAc(b1-2)Man(a1-3)[Fuc(a1-2)Gal(b1-3)[Fuc(a1-4)]GlcNAc(b1-2)Man(a1-6)]Man(b1-4)GlcNAc(b1-4)[Fuc(a1-6)]GlcNAc(b1-4)[Fuc(a1-6)]GlcNAc
# Procedure, shortened: as §1
# [17] = target: Fuc(a1-2)Gal(b1-3)[Fuc(a1-4)]GlcNAc(b1-3)[Fuc(a1-3)[Gal(b1-4)]GlcNAc(b1-6)]Gal(b1-4)Glc
# Procedure, shortened: as §1
# [18] = target: Fuc(a1-2)Gal(b1-3)[Fuc(a1-4)]GlcNAc(b1-3)[Gal(b1-4)GlcNAc(b1-6)]Gal(b1-4)Glc
# Procedure, shortened: as §1
# [19] = target: Fuc(a1-2)Gal(b1-4)Fuc(a1-3)]GlcNAc(b1-2)Man(a1-3)[Fuc(a1-2)Gal(b1-4)[Fuc(a1-3)]GlcNAc(b1-2)Man(a1-6)]Man(b1-4)GlcNAc(b1-4)GlcNAc
# Procedure, shortened: as §1
# Fuc(a1-2)Gal(b1-4)Glc = target: Fuc(a1-2)Gal(b1-4)Glc
# Procedure, shortened: as §1
# Fuc(a1-2)Gal(b1-4)Glc6S = target: Fuc(a1-2)Gal(b1-4)Glc6S
# Procedure, shortened: as §1
# Fuc(a1-2)Gal(b1-4)GlcNAc = target: Fuc(a1-2)Gal(b1-4)GlcNAc
# Procedure, shortened: as §1
# [20] = target: Fuc(a1-2)Gal(b1-4)GlcNAc(b1-2)Man
# Procedure, shortened: as §1
# [21] = target: Fuc(a1-2)Gal(b1-4)GlcNAc(b1-2)Man(a1-3)[Fuc(a1-2)Gal(b1-4)GlcNAc(b1-2)Man(a1-6)]Man(b1-4)GlcNAc(b1-4)GlcNAc
# Procedure, shortened: as §1
# [22] = target: Fuc(a1-2)Gal(b1-4)GlcNAc(b1-2)Man(a1-3)[Fuc(a1-2)Gal(b1-4)GlcNAc(b1-2)Man(a1-6)]Man(b1-4)GlcNAc(b1-4)[Fuc(a1-6)]GlcNAc
# Procedure, shortened: as §1
# [23] = target: Fuc(a1-2)Gal(b1-4)GlcNAc(b1-2)[Fuc(a1-2)Gal(b1-4)GlcNAc(b1-4)]Man(a1-3)[Fuc(a1-2)Gal(b1-4)GlcNAc(b1-2)Man(a1-6)]Man(b1-4)GlcNAc(b1-4)GlcNAc
# Procedure, shortened: as §1
# [24] = target: Fuc(a1-2)Gal(b1-4)GlcNAc(b1-3)Gal(b1-4)GlcNAc
# Procedure, shortened: as §1
# [25] = target: Fuc(a1-2)Gal(b1-4)GlcNAc(b1-3)Gal(b1-4)GlcNAc(b1-2)Man(a1-3)[Fuc(a1-2)Gal(b1-4)GlcNAc(b1-3)Gal(b1-4)GlcNAc(b1-2)Man(a1-6)]Man(b1-4)GlcNAc(b1-4)GlcNAc
# Procedure, shortened: as §1
# [26] = target: Fuc(a1-2)Gal(b1-4)GlcNAc(b1-3)Gal(b1-4)GlcNAc(b1-3)Gal(b1-4)GlcNAc
# Procedure, shortened: as §1
# [27] = target: Fuc(a1-2)Gal(b1-4)GlcNAc(b1-3)GalNAc
# Procedure, shortened: as §1
# [28] = target: Fuc(a1-2)Gal(b1-4)GlcNAc(b1-3)[Fuc(a1-2)Gal(b1-4)GlcNAc(b1-6)]GalNAc
# Procedure, shortened: as §1
# [29] = target: Fuc(a1-2)Gal(b1-4)GlcNAc(b1-3)[Fuc(a1-3)[Gal(b1-4)]GlcNAc(b1-6)]Gal(b1-4)Glc
# Procedure, shortened: as §1
# [30] = target: Fuc(a1-2)Gal(b1-4)GlcNAc(b1-6)GalNAc
# Procedure, shortened: as §1
# [31] = target: Fuc(a1-2)Gal(b1-4)GlcNAc6S
# Procedure, shortened: as §1
# [32] = target: Fuc(a1-2)Gal(b1-4)[Fuc(a1-3)]GlcNAc
# Procedure, shortened: as §1
# [33] = target: Fuc(a1-2)Gal(b1-4)[Fuc(a1-3)]GlcNAc(b1-2)Man(a1-3)[Fuc(a1-2)Gal(b1-4)[Fuc(a1-3)]GlcNAc(b1-2)Man(a1-6)]Man(b1-4)GlcNAc(b1-4)[Fuc(a1-6)]GlcNAc
# Procedure, shortened: as §1
# [34] = target: Fuc(a1-2)Gal(b1-4)[Fuc(a1-3)]GlcNAc(b1-2)[Fuc(a1-2)Gal(b1-4)[Fuc(a1-3)]GlcNAc(b1-4)]Man(a1-3)[Fuc(a1-2)Gal(b1-4)[Fuc(a1-3)]GlcNAc(b1-2)Man(a1-6)]Man(b1-4)GlcNAc(b1-4)GlcNAc
# Procedure, shortened: as §1
# [35] = target: Fuc(a1-2)Gal(b1-4)[Fuc(a1-3)]GlcNAc(b1-3)Gal(b1-4)[Fuc(a1-3)]GlcNAc
# Procedure, shortened: as §1
# [36] = target: Fuc(a1-2)Gal(b1-4)[Fuc(a1-3)]GlcNAc(b1-3)Gal(b1-4)[Fuc(a1-3)]GlcNAc(b1-3)Gal(b1-4)[Fuc(a1-3)]GlcNAc
# Procedure, shortened: as §1
# [37] = target: Fuc(a1-2)Gal(b1-4)[Fuc(a1-3)]GlcNAc(b1-3)GalNAc
# Procedure, shortened: as §1
# [38] = target: Fuc(a1-2)Gal(b1-4)[Fuc(a1-3)]GlcNAc(b1-3)[Neu5Ac(a2-6)Gal(b1-4)GlcNAc(b1-6)]Gal(b1-4)Glc
# Procedure, shortened: as §1
# [39] = target: Fuc(a1-2)Gal3S(b1-4)GlcNAc
# Procedure, shortened: as §1
binder,measurement,setting,value
rMpL (Macrolepiota procera) (protein) MSTQVSSGRTYKITNVIAGTVIDLSGEDNKSIIGYPYHSGKNQQWTFNWTGKAWTLRSASSGSYLGIEGTPAGGTRLVAVNDPFEWHIWRDEANENAFRIFVPFTNYNLDLSGYGDTTPGTPVQLWWTWEGLHQTWTIDRP,glycan array binding signal (z-score),Fuc(a1-2)Gal,-0.334
same,glycan array binding signal (z-score),Fuc(a1-2)Gal(b1-3)GalNAc,-0.342
same,glycan array binding signal (z-score),[1],-0.218
same,glycan array binding signal (z-score),[2],-0.34
same,glycan array binding signal (z-score),[3],-0.272
same,glycan array binding signal (z-score),[4],-0.32
same,glycan array binding signal (z-score),[5],-0.322
same,glycan array binding signal (z-score),Fuc(a1-2)Gal(b1-3)GlcNAc,-0.346
same,glycan array binding signal (z-score),[6],-0.176
same,glycan array binding signal (z-score),[7],0.011
same,glycan array binding signal (z-score),[8],-0.275
same,glycan array binding signal (z-score),[9],-0.299
same,glycan array binding signal (z-score),[10],-0.078
same,glycan array binding signal (z-score),[11],0.062
same,glycan array binding signal (z-score),[12],-0.219
same,glycan array binding signal (z-score),[13],-0.26
same,glycan array binding signal (z-score),[14],-0.346
same,glycan array binding signal (z-score),[15],0.35
same,glycan array binding signal (z-score),[16],-0.251
same,glycan array binding signal (z-score),[17],0.051
same,glycan array binding signal (z-score),[18],0.034
same,glycan array binding signal (z-score),[19],-0.148
same,glycan array binding signal (z-score),Fuc(a1-2)Gal(b1-4)Glc,-0.325
same,glycan array binding signal (z-score),Fuc(a1-2)Gal(b1-4)Glc6S,-0.287
same,glycan array binding signal (z-score),Fuc(a1-2)Gal(b1-4)GlcNAc,-0.313
same,glycan array binding signal (z-score),[20],-0.272
same,glycan array binding signal (z-score),[21],-0.164
same,glycan array binding signal (z-score),[22],-0.049
same,glycan array binding signal (z-score),[23],-0.037
same,glycan array binding signal (z-score),[24],-0.356
same,glycan array binding signal (z-score),[25],-0.171
same,glycan array binding signal (z-score),[26],-0.248
same,glycan array binding signal (z-score),[27],-0.301
same,glycan array binding signal (z-score),[28],-0.248
same,glycan array binding signal (z-score),[29],0.082
same,glycan array binding signal (z-score),[30],-0.235
same,glycan array binding signal (z-score),[31],-0.304
same,glycan array binding signal (z-score),[32],-0.314
same,glycan array binding signal (z-score),[33],-0.149
same,glycan array binding signal (z-score),[34],-0.102
same,glycan array binding signal (z-score),[35],-0.35
same,glycan array binding signal (z-score),[36],-0.297
same,glycan array binding signal (z-score),[37],0.026
same,glycan array binding signal (z-score),[38],-0.26
same,glycan array binding signal (z-score),[39],-0.327
